Source: PubChem BioAssay AID1347417 (National Center for Advancing Translational Sciences (NCATS), 2020)
The campaign covered roughly 120,000 compounds. About 5,300 (4.4%) were called active. This list was built around the results that the source calls inconclusive (neither active nor inactive); the mix of calls is not that of the screen. Calls follow the shape of the dose curve; as a rule, active = well fitted inhibition curve with a large enough effect; inconclusive = small, poorly fitted or top-dose-only effect; inactive = no such curve, though single readings can be large or run the other way. Where the call is inconclusive, the potency comes from a doubtful curve fit.
Potency is read from the fitted curve at half-maximal effect; tags tell the direction and shape of the fitted curve.

Test: qHTS Primary assay for Inhibitors of Plasmodium falciparum Dd2 growth in vitro; also: nearly all actives have a fitted effect of over 65% in size
Settings: P. falciparum Dd2 growth, SYBR Green, 72 h; series mostly up to 28.9 µM
In short: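 Infected erythrocytes (Dd2, 0.3% parasitemia, 2.5% hematocrit final) are added to compound in RPMI-1640/Albumax II medium, grown 72 h at 37C in low oxygen, then lysed with saponin/Triton-X containing SYBR Green and read by fluorescence.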
With CCOC(=O)c1ccc(N2C(=O)c3[nH]nc(-c4ccc(C)cc4)c3C2c2ccc(O)cc2)cc1 (configuration not stated) the Potency was inconclusive: 15.8 µM [inhibitor, single point].
With Cc1cn2nc(C(=O)Nc3ccc4c(c3)OCCO4)cc2c(N(C)Cc2ccccc2)n1 the Potency was inconclusive: 2 µM [inhibitor, partial curve].
In the case of Fc1ccc(CN2CCOC[C@H](Oc3ccccc3)C2)cc1, the Potency is reported as active: 12.6 µM.
In the case of CCOc1ccc(Nc2nc(N)c(C(=O)c3ccccc3Cl)s2)cc1, the Potency is reported as inconclusive: 8.91 µM [inhibitor, single point].
In the case of CCN(CC)S(=O)(=O)c1ccc(NC(=O)c2nn(C)c3c2CSc2ccccc2-3)cc1, the Potency is reported as inconclusive: 5.01 µM [inhibitor, partial curve, poor fit].
In the case of Fc1ccc(Nc2nc(SCc3cccc(F)c3)nc3ccccc23)cc1, the Potency is reported as inconclusive: 17.8 µM [inhibitor, single point].
For CN1CCN(C(=O)C(C)(C)Oc2nn(CC3CC3)c3ccc(CN4CCCC4)cc23)CC1, the Potency was inconclusive: 5.62 µM [inhibitor, single point].
With COc1ccc(-c2cn3c(n2)sc2cc(C(=O)Nc4ccc(F)cc4)ccc23)cc1 the “outcome” value was “inactive”.
In the case of Cc1cc(NC(=O)c2ccc(F)cc2)ccc1-c1cc2ccccc2oc1=O, the Potency is reported as inconclusive: 11.2 µM [inhibitor, single point].
In the case of COc1ccc(S(=O)(=O)N2CC(c3noc(-c4cccnc4)n3)C2)cc1Cl, the Potency is reported as inconclusive: 2.82 µM [inhibitor, full curve, poor fit].
With O=C1N(CC2CC2)CCOC12CCN([S+](=O)([O-])c1ccc(C(F)(F)F)cc1)CC2 the “outcome” value was “inactive [at 44.1 µM]”.
In the case of Cc1nc(C(F)(F)F)nc(N2CCN(C3CCCC3)C(CCO)C2)c1C (configuration not stated), the Potency is reported as inconclusive: 2.82 µM [inhibitor, full curve].
In the case of Cc1nn(-c2cccc(Br)c2)c(C)c1[C@@H]1C=C[C@@H](NC(=O)c2cccs2)C1, the Potency is reported as inconclusive: 0.178 µM [inhibitor, full curve, poor fit].
In the case of Cc1ccc(-c2nc3cnccn3c2NCCC(=O)NCc2ccco2)cc1, the “outcome” value is reported as “inactive”.
For COC(=O)CC(=O)CSc1nc2cc(C(=O)NC(C)C)ccc2c(=O)n1CCc1ccccc1, the Potency was inconclusive: 17.8 µM [inhibitor, single point].
In the case of CN1C[C@@H](NC(=O)Nc2ccc(C(F)(F)F)cc2)C[C@H]1c1nc(-c2ccc(Cl)cc2)no1, the Potency is reported as inconclusive: 11.2 µM [inhibitor, single point].
In the case of CCCCN(CC)CCCNC(=O)Cn1nc(CC)n2c(cc3sccc32)c1=O, the Potency is reported as inconclusive: 10 µM [inhibitor, single point].
